Laboratory results as given in the RNAGym collection of RNA variant scans (doi:10.1101/gad.245936.114).
Variants at the background level are over-represented here.

B1: tRNA (parent)
chain: CUCUCGGUAGCCAAGUUGGUUUAAGGCGCAAGACUUUAAUUUAUCACUACGAAAUCUUGAGAUCGGGCGUUCGACUCGCCCCCGGGAGAUUUUUUCCUCGAGCAA

Variants of: B1
Test: nonsense suppression (GFP-seq) (ratio to wild type); higher = more function; SUP4oc tRNA, yeast GFP reporter sort-seq
Method in brief: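 Sorted GFP/RFP bins of yeast were each Illumina-sequenced with a phred ≥30 cutoff; the cells held a genome-integrated ochre-suppressor tRNA variant from a library with ~3% random mutations, a galactose-driven GFP ochre reporter, and RFP. Culture was in raffinose/galactose medium containing 80 mg/L adenine. Nonsense suppression, termed GFPSEQ, is the median GFP/RFP of the bins weighted by each variant's estimated cell share per bin, relative to the unmutated parent tRNA, for variants reaching ≥100 reads and ≥30 cells.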

Row | Variant | nonsense suppression
1 | CUCUCGGUAGACAAGUUGGUUUAAGGCGCAAGACUUUAAUUUAUCACUACGAAAUUUAGAGAUCGGGCGUUCGACUCGCCCCCGGGAGAUUUUUUCCUCGAGCAA [C11A C56U U58A] | ≤ 0.026
2 | CUCUCGGUAGACAAGUUGGUUUAAGGCGCAAGACUUUAAUUUAUCACUACGAAAUCUUGAGAUCGGGAGUUCGACUCGCCUCCGGGAGAUUUUUUCCUCGAGCAA [C11A C68A C81U] | ≤ 0.026
3 | CUCUCGGUAGACAAGUUGGUUUAAGGCGCAAGACUUUAAUUUAUCACUACGAAAUCUUGAGAUCGGGGGUUCGACUCGCCCCCGGGAGAUUUUUUCCUCGAGCAA [C11A C68G] | ≤ 0.026
4 | CUCUCGGUAGACAAGUUGGUUUAAGGCGCAAGACUUUAAUUUAUCACUACGAAAUCUUGAGAUCGGGUGUUCGACUCGCCCCCGAGAGAUUUUUUCCUCGAGCAA [C11A C68U G85A] | ≤ 0.026
5 | CUCUCGGUAGACAAGUUGGUUUAAGGCGCAAGACUUUAAUUUAUCACUACGAAAUCUUGAGAUCGGGCGUUCGAGUCGCCCCCGGGAGAUUUUUUCCUCGAGCAA [C11A C75G] | ≤ 0.026
6 | CUCUCGGUAGACAAGUUGGUUUAAGGCGCAAGACUUUAAUUUAUCACUACGAAAUCUUGAGAUCGGGCGUUCGACUCGGCCCCGGGAGAUUUUUUCCUCGAGCAA [C11A C79G] | ≤ 0.026
7 | CUCUCGGUAGACAAGUUGGUUUAAGGCGCAAGACUUUAAUUUAUCACUACGAAAUCUUGAGAUCGGGCGUUCGACUCGUCCCCGGGAGAUUUUUUCCUCGAGCAA [C11A C79U] | ≤ 0.026
8 | CUCUCGGUAGACAAGUUGGUUUAAGGCGCAAGACUUUAAUUUAUCACUACGAAAUCUUGAGAUCGGGCGUUCGACUCGCGCCCGGGAGGUUUUUUCCUCGAGCAA [C11A C80G A89G] | ≤ 0.026
9 | CUCUCGGUAGACAAGUUGGUUUAAGGCGCAAGACUUUAAUUUAUCACUACGAAAUCUUGAGAUCGGGCGUUCGACUCGCUACCGGGAGAUUUUUUCCUCGAGCAA [C11A C80U C81A] | ≤ 0.026
10 | CUCUCGGUAGACAAGUUGGUUUAAGGCGCAAGACUUUAAUUUAUCACUACGAAAUCUUGAGAUCGGGCGUUCGACUCGCCUGCGGGAGAUUUUUUCCUCGAGCAA [C11A C81U C82G] | ≤ 0.026
11 | CUCUCGGUAGACAAGUUGGUUUAAGGCGCAAGACUUUAAUUUAUCACUACGAAAUCUUGAGAUCGGGCGUUCGACUCGCCCCAGGGAGAUUUUUUCCUCGAGCAA [C11A C83A] | ≤ 0.026
12 | CUCUCGGUAGACAAUUUGGUUUAAGGCGCAAGACUUUAAUUUAUCACUACGAAAUCUUGAGAUCGGGCGUUCGACUCGCCCCCGGGGGAUUUUUUCCUCGAGCAA [C11A G15U A87G] | ≤ 0.026
13 | CUCUCGGUAGACAAUUUGGUUUAAGGCGCAAGACUUUAAUUUAUCACUACGAAAUAUCGAGAUCGGGCGUUCGACUCGCCCCCGGGAGAUUUUUUCCUCGAGCAA [C11A G15U C56A U58C] | ≤ 0.026
14 | CUCUCGGUAGACAAGUUAGUUUAAGGCGCAAGACUUUAAUUUAUCACUACGAAAUCUUGAGAUCGGGCGUUCGACUCGCCCCCGGGAGAUUUUUUCCUCGAGCAA [C11A G18A] | ≤ 0.026
15 | CUCUCGGUAGACAAGUUUGUUUAAGGCGCAAGACUUUAAUUUAUCACUACGAAAUCUUGAGAUCGGGCGUUCGUCUCGCCCCCGGGAGAUUUUUUCCUCGAGCAA [C11A G18U A74U] | ≤ 0.026
16 | CUCUCGGUAGACAAGUUUGUUUAAGGCGCAAGACUUUAAUUUAUCACUACGAAAUCUUGAGAACGGGCGUUCGACUCGCCCCCGGGAGAUUUUUUCCUCGAGCAA [C11A G18U U63A] | ≤ 0.026
17 | CUCUCGGUAGACAAGUUGCUUUAAGGCGCGAGAGUUUAAUUUAUCACUACGAAAUCUUGAGAUCGGGCGUUCGACUCGCCCCAGGGAGAUUUUUUCCUCGAGCAA [C11A G19C A30G C34G C83A] | ≤ 0.026
18 | CUCUCGGUAGACAAGUUGUCUUAAGGCGCAAGACUUUAAUUUAUCACUACGAAAGCUUGAGAUCGGGCGUUCGACUCGCCCCCGGGAGAUUUUUUCCUCGAGCAA [C11A G19U U20C U55G] | ≤ 0.026
19 | CUCUCGGUAGACAAGUUGGUUUAACGCGCAAGACUUUAAUUUAUCACUACGAAAUCUUGACAUCGGGCGUUCGACUCGCCCCCGGGAGAUUUUUUCCUCGAGCAA [C11A G25C G61C] | ≤ 0.026
20 | CUCUCGGUAGACAAGUUGGUUUAAGACGCAAGACUUUAAUUUAUCACUACGAAAUCUUGAGAUCGGGCGAUCGACUCGCCCCCGGGAGAUUUUUUCCUCGAGCAA [C11A G26A U70A] | ≤ 0.026
21 | CUCUCGGUAGACAAGUUGGUUUAAGGCACAAGACUUUAAUUUAUCACUACGAAAUGCUGUGAUCUGGCGUUCGACUCGCCCCCGGGAGAUUUUUUCCUCGAGCAA [C11A G28A C56G U57C A60U G65U] | ≤ 0.026
22 | CUCUCGGUAGACAAGUUGGUUUAAGGCACAAGACUUUAAUUUAUCACUACGAAAUCUUGAGAUCGGGCGUUCGACCCGCCCCCGGGAGAUUUUUUCCUCGAGCAA [C11A G28A U76C] | ≤ 0.026
23 | CUCUCGGUAGACAAGUUGGUUUAAGGCUCAAGACUUUAAUUUAUCACUACGAAAUCUUGAGAUCGGGCGUUCGACUCGCCCCCGGGAGAUUUUUUCCUCGAGCAA [C11A G28U] | ≤ 0.026
24 | CUCUCGGUAGACAAGUUGGUUUAAGGCGCAAAACUUUAAUUUAUCACUACGAAAUCUUGAGAUCGGGCGUUCGACUCGCCCCUGGGAGAUUUUUUCCUCGAGCAA [C11A G32A C83U] | ≤ 0.026
25 | CUCUCGGUAGACAAGUUGGUUUAAGGCGCAAGACUUUAAUUUAUCACUACGAAAUCUUUACAUCGGGCGUUCGACUCGCCCCCGGGAGAUUUUUUCCUCGAGCAA [C11A G59U G61C] | ≤ 0.026
26 | CUCUCGGUAGACAAGUUGGUUUAAGGCGCAAGACUUUAAUUUAUCACUACGAAAUCUUGAAAUCGGGCGUUCGACUCGCCCCCGGGAGAUUUUUUCCUCGAGCAA [C11A G61A] | 0.22
27 | CUCUCGGUAGACAAGUUGGUUUAAGGCGCAAGACUUUAAUUUAUCACUACGAAAUCUUGAAACCGGGCGUUCGACACGCCCCCGGGAGAUUUUUUCCUCGAGCAA [C11A G61A U63C U76A] | ≤ 0.026
